Assay results taken from PubChem BioAssay AID1347165 (National Center for Advancing Translational Sciences (NCATS), 2019).
In all, about 220,000 compounds went through this assay and about 5,700 (2.6%) were called active. Inconclusive means that the source gave no clear call. Such entries were picked first, then a sample of the others. Calls follow the shape of the dose curve; as a rule, active = well fitted inhibition curve with a large enough effect; inconclusive = small, poorly fitted or top-dose-only effect; inactive = no such curve, though single readings can be large or run the other way. Potencies of inconclusive entries are doubtful fits and often do not repeat.

Molecular target: Lysine-specific demethylase 5B (Homo sapiens) (UniProt Q9UGL1)
UniProt Q9UGL1, sequence (Q9UGL1 whole entry, looked up): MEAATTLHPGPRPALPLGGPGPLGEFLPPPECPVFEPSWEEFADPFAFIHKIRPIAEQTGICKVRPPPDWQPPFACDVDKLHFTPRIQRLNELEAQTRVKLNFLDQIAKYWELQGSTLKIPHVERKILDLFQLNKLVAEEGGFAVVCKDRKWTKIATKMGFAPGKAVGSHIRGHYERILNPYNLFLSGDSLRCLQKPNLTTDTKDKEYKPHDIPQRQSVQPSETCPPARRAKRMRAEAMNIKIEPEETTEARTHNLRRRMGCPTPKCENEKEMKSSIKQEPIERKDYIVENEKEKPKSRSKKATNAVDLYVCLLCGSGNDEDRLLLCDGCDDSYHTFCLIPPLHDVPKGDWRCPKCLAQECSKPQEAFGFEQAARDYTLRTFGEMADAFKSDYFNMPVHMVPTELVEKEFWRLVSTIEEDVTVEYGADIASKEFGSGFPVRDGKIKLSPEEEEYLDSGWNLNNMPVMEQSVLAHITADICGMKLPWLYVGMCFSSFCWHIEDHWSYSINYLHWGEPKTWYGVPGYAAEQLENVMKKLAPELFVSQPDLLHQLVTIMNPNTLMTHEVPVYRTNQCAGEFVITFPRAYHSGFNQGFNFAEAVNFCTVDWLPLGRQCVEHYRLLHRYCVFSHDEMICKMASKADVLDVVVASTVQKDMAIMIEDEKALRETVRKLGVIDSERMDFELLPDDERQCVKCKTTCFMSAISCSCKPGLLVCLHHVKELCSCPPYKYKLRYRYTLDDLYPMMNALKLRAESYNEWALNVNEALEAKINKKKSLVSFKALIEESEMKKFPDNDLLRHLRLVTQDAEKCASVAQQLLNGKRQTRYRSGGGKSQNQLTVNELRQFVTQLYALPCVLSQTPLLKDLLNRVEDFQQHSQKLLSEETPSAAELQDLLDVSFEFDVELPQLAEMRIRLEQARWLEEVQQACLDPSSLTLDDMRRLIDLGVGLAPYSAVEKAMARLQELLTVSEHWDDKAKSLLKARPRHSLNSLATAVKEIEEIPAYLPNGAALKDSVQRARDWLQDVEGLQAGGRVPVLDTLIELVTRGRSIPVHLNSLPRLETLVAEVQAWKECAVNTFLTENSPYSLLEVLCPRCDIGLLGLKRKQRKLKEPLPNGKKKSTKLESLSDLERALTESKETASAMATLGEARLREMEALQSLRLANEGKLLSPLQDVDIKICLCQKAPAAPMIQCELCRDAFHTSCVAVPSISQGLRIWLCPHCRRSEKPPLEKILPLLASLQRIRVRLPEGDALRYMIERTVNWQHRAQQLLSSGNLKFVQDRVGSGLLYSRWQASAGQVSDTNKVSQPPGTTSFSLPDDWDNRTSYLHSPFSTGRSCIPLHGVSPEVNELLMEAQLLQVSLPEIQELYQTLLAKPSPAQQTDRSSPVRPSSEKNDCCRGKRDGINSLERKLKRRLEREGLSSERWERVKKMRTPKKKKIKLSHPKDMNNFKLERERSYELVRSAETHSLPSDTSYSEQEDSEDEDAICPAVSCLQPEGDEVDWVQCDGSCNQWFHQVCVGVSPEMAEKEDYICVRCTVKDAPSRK
Assay: Primary screen for KDM5B Histone Demethylases FDH-coupled qHTS; also: nearly all actives have a fitted effect of over 70% in size
Settings: FDH-coupled NADH fluorescence (FDH is formaldehyde dehydrogenase); series mostly up to 57.7 µM
Outline: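 Inhibition is measured as reduced NADH fluorescence generation from FDH coupling to formaldehyde release. Truncated KDM5BΔAP at 200 nM final acts on H3K4me3 peptide (12.5 µM in substrate mix) in pH 7.5 HEPES buffer with Tween-20, 30 min, room temperature.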
Potency is read from the fitted curve at half-maximal effect; tags tell the direction and shape of the fitted curve.

SMILES	Potency
COc1ccc([C@@H](NC(=O)c2cc3ncccn3n2)C2CC(O)C2)cn1 (some centres undefined)	inactive
O=C(Nc1ccc(Cl)cc1)c1nc2c(o1)CCN(Cc1cc(F)ccc1F)CC2	active: 31.6 µM
Cc1cc(C)cc(N2CC(c3nc(-c4ccccc4)no3)CC2=O)c1 (centres undefined)	inactive
CC(C)CCNC(=O)c1cc(-c2ccco2)nc2ccccc12	inconclusive: 10 µM [inhibitor, partial curve, poor fit]
CN(C)C(=O)CSc1nc(-c2ccco2)nc2ccccc12	inconclusive: 28.2 µM [inhibitor, partial curve, poor fit]
C#CCNC(=O)Nc1ccc(C)cc1	inactive
Cc1ccccc1C(=O)N(CCCN(C)C)c1nc2ccc(F)cc2s1	inactive
CCCCCS(=O)(=O)c1oc(-c2cccs2)nc1S(=O)(=O)c1ccc(C)cc1	inconclusive: 1.58 µM [inhibitor, full curve, poor fit]
CCCCN(CCCC)C(=O)c1cc2c(=O)n3cccc(C)c3nc2s1	inconclusive: 14.1 µM [inhibitor, partial curve, poor fit]
COc1ccccc1-c1cc(C(=O)NCc2cccs2)nn2cnnc12	inconclusive: 89.1 µM [inhibitor, single point]
COc1cc2ccccc2cc1C(=O)N1CCC(C(=O)c2ccc3c(c2)OCCO3)CC1	inconclusive: 22.4 µM [inhibitor, partial curve, poor fit]
CCc1ccc(NC(=O)/C(C#N)=C/c2ccncc2)cc1	inconclusive: 10 µM [inhibitor, partial curve, poor fit]
CCOc1ccc(CN(C)S(=O)(=O)c2cnn(C)c2)cc1OC	inactive
COc1cccc(NC(=O)CN2C(=O)c3cccnc3Oc3ccc(Cl)cc32)c1	inconclusive: 35.5 µM [inhibitor, single point]
Cc1cc(CNC(=O)c2cc(-c3ccncc3)cc3c2OCCN3C)no1	inconclusive: 35.5 µM [inhibitor, single point]
CN1CCCC2(C1)CN(C)c1ccc(C(=O)Nc3ccc(F)cc3)cc12 (centres undefined)	active: 35.5 µM
CN(C(=O)Nc1ccc(F)cc1F)C(c1ccc(Cl)cc1)c1nccn1C (centres undefined)	inactive
CCOc1ccccc1NC(=O)Cn1nc2c(cc1=O)CCCCC2	inactive
COc1ccc(C(=O)N2CCCC(CO)CCNC(=O)CC2)c(OC)c1 (centres undefined)	inactive
CC1(c2ccccc2)N(Cc2ccc(O)cc2)C(=O)OC12CCN(C(=O)c1ccccc1)CC2 (centres undefined)	inconclusive: 20 µM [inhibitor, single point]
COC(=O)c1c(-c2cccs2)csc1NC(=O)COc1ccc(C(C)(C)C)cc1	inconclusive: 25.1 µM [inhibitor, partial curve, poor fit]
CCOc1ccccc1C1C(C(=O)N2CCCCC2)=C(C)Nc2nc3ccccc3n21 (centres undefined)	inconclusive: 6.31 µM [inhibitor, partial curve, poor fit]
Cc1ccc(C(=O)Nc2ccc(-c3cn4cccnc4n3)cc2)cc1C	inconclusive: 31.6 µM [inhibitor, partial curve, poor fit]

SMILES	Potency
CN1C(=O)c2cccn2CC1CNC(=O)c1n[nH]c(=O)c2ccccc12 (centres undefined)	inactive
Cc1cccc(-c2nc3cnccn3c2NCCC(=O)N2CCCCC2)c1	active: 28.2 µM
O=C(Nc1cccs1)N1CCNc2cnc(Nc3cccc(F)c3)nc2C1	inconclusive: 20 µM [inhibitor, partial curve, poor fit]
Cc1noc(-c2cccc(F)c2)c1C(=O)NCc1cccc(Cl)c1	inactive
COc1ccc(-c2onc(C)c2C(=O)NC2CCCc3ccccc32)cc1 (centres undefined)	inconclusive: 31.6 µM [inhibitor, single point]
O=C(O)c1nccnc1C(=O)Nc1ccc(Oc2c(Cl)cccc2Cl)nc1	inconclusive: 25.1 µM [inhibitor, single point]
O=C(NCc1cccs1)c1nc(-c2ccccc2)c2ccccn12	active: 11.2 µM
COc1ccc(F)cc1-c1ncc2c(n1)OCCN(c1cccc(C(F)(F)F)c1)C2=O	active: 39.8 µM
CCc1ccc(OCC(O)Cn2c(=O)c3ccccc3n3nc(C)cc23)cc1 (centres undefined)	inconclusive: 28.2 µM [inhibitor, partial curve, poor fit]
COc1cccc2[nH]c(C(=O)N[C@@H](C)C(=O)Nc3ccc4c(c3)OCCO4)cc12	inconclusive: 39.8 µM [inhibitor, single point]
CN1C(=O)c2ccccc2Sc2ccc(NC(=O)c3ccccc3F)cc21	inconclusive: 14.1 µM [inhibitor, partial curve, poor fit]
C=CCn1c(N2CCN(Cc3ccc(Br)cc3)CC2)nc2c1c(=O)[nH]c(=O)n2C	inactive
CN1CCN(c2ccc(-c3cc4c(ccn4C)c(C(=O)NCCc4ccccn4)n3)cc2)CC1	inconclusive: 25.1 µM [inhibitor, single point]
Cc1nc2c3c(C)c(C)n(Cc4ccncc4)c3ncn2n1	inconclusive: 22.4 µM [inhibitor, partial curve, poor fit]
CC(C)(C)c1ccc(C(=O)N2CCN(C/C=C/c3ccccc3)CC2)cc1	inactive
CC(=O)Nc1ccc(S(=O)(=O)N2C[C@@H]3C[C@H](C2)c2ccc(-c4ccccc4C)c(=O)n2C3)cc1	active: 25.1 µM
O=C1CC(c2ccc(O)cc2)c2ncn(-c3ccccc3)c2N1 (centres undefined)	inconclusive: 20 µM [inhibitor, partial curve, poor fit]
CC(C)C(=O)N1Cc2ccccc2CC2(CCCN2C)C1 (centres undefined)	inconclusive: 63.1 µM [inhibitor, partial curve]
N#Cc1c(O)ccc(O)c1C#N	inconclusive: 28.2 µM [inhibitor, partial curve, poor fit]
CCN(CCCNC(=O)Cn1ncc2c([nH]c3ccc(C)cc32)c1=O)c1cccc(C)c1	inconclusive: 1.58 µM [inhibitor, full curve, poor fit]
CN(Cc1ccccc1)C(=O)C[C@@H]1O[C@H](CNS(=O)(=O)c2ccc(Cl)cc2)[C@@H](O)[C@H]1O	inconclusive: 22.4 µM [inhibitor, partial curve, poor fit]
O=[S+]1([O-])NCC2(CCCN(Cc3ccc(C(F)(F)F)cc3)C2)Oc2ncccc21 (centres undefined)	inconclusive: 50.1 µM [inhibitor, partial curve, poor fit]
COc1ccc(-c2noc(C(=O)O)c2[C@@H](C)NC(=O)Cc2ccccc2)cc1	inactive

SMILES	Potency
COC(=O)c1cc2c(C(F)(F)F)cc(-c3ccccc3)nc2s1	inactive
CCC1CCCCN1CCNC(=O)CCc1cc2ccccc2[nH]c1=O (centres undefined)	inconclusive: 31.6 µM [inhibitor, single point]
COc1ccc(C(C)=O)cc1CN1CCCC(C)C1 (centres undefined)	inactive
CCN1CC2(CCN(C(=O)Cc3c(C)[nH]c4c(F)cccc34)CC2)OC1=O	inactive
Cc1c(C)c2ccc(OCC(=O)OC(C)(C)C)c(C)c2oc1=O	inconclusive: 20 µM [inhibitor, single point]
COC[C@H]1C[C@@H](NCc2nccn2C)[C@H](O)[C@@H]1O	inconclusive: 12.6 µM [inhibitor, partial curve]
O=[N+]([O-])/C=C/c1ccc(-c2ccccc2)o1	inconclusive: 20 µM [inhibitor, partial curve, poor fit]
CC(=O)Nc1ccc2nc(-c3ccccc3C)oc2c1	inconclusive: 10 µM [inhibitor, partial curve, poor fit]
COC(=O)C(C)(C)NC(=O)CNC(=O)OCc1ccccc1	inactive
Cc1ccc(S(=O)(=O)NC[C@H]2OC[C@@H](NCc3ccncc3)[C@@H]2O)cc1	inactive
O=C(COC(=O)c1cccc(F)c1)c1ccc([N+](=O)[O-])cc1	inactive
Cc1ccc(-c2cc3c(=O)n(CCNC(=O)c4ccoc4)ccn3n2)cc1C	inconclusive: 35.5 µM [inhibitor, single point]
O=C(CNc1ccc(S(=O)(=O)N2CCCC2)cc1)N1CCN(C(=O)c2cccs2)CC1	inactive
Cc1ccc(-c2c(CN3CCN(c4cccc(C(F)(F)F)c4)CC3)csc2C)cc1	inconclusive: 39.8 µM [inhibitor, single point]
Cc1ccc(-c2ncc(C(=O)Nc3cccc(Br)c3)c(-c3ccncc3)n2)cc1	inconclusive: 20 µM [inhibitor, partial curve]
O=C(CSc1nccn1Cc1ccc2c(c1)OCO2)Nc1nccs1	inactive
CCCCCNC(=O)CC(c1cccc(OC)c1OC)c1c[nH]c2c(CC)cccc12 (centres undefined)	inconclusive: 22.4 µM [inhibitor, single point]
O=c1c2nc(-c3ccccc3)ccc2ncn1-c1ccccc1	active: 39.8 µM
CCN(CC)C(=O)C1=C(C)N=C2SC=C(CC(=O)NCc3ccccc3)N2C1c1ccccc1F (centres undefined)	inconclusive: 25.1 µM [inhibitor, single point]
Cc1ccc(N(C(C)C(=O)N2CCCCCC2)S(C)(=O)=O)cc1 (centres undefined)	inactive
COc1cc(NC(=O)Nc2cccc(-c3ccc(N4CCOCC4)nn3)c2)cc(OC)c1	inconclusive: 20 µM [inhibitor, partial curve, poor fit]
CC(C)c1noc([C@@H]2C[C@H]3C(=O)NCCCCCCN(C(=O)CCc4ccccc4)[C@H]3C2)n1	inactive
Cc1ccc(SCc2ccc(-c3nc(C4CCOC4)no3)o2)cc1 (centres undefined)	inconclusive: 28.2 µM [inhibitor, partial curve, poor fit]
